“And” between values parts separate entries of the source, which are not always exact repeats. Equal values may be shown once. Inconclusive results, whose numbers are uncertain, are shown with a selection of clear calls. For some assays here: Potencies of inconclusive entries are doubtful fits and often do not repeat. The source made the active and inactive calls. Unless noted, calls follow the shape of the full dose curve.
Legend:
[1] = qHTS assay to identify small molecule antagonists of the estrogen receptor beta (ER-beta) signaling pathway - cell viability counter screen (AID 1259382; active = well fitted curve in the direction sought with a large enough effect in the repeat runs; inconclusive = weak or mixed curves; inactive = no such curve, though single readings can be large; an effect the other way counts as inactive or inconclusive; also: nearly all actives have a fitted effect of over 55% in size; also: potency is read from the fitted curve at half-maximal effect)
Method in brief: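 CellTiter-Glo ATP luminescence measured after the LiveBLAzer read in the same wells; ER-beta-UAS-bla HEK293T cells, 16 hr compound treatment with 1nM 17-beta-estradiol agonist at 37C, 5% CO2.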

[2] = target: Thyrotropin receptor (Homo sapiens) (UniProt P16473); test: qHTS assay to identify small molecule antagonists of the thyroid stimulating hormone receptor (TSHR) signaling pathway (AID 1259385); details: TSHR-HEK293 cAMP HTRF, TSH-stimulated antagonist mode; activity change, negative = inhibition: at 92.4 µM (top of the series) unless noted; also: nearly all actives have a fitted effect of over 20% in size; also: potency is read from the fitted curve at half-maximal effect; as to activity change, negative = inhibition: % is scaled to controls: 0 for no effect and ±100 for the full control effect
Method in brief: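 Antagonist mode: compound-treated TSHR-expressing HEK293 cells were stimulated with 1.5 ng/mL TSH (final) in presence of Ro20-1724 for 30 min at RT. HTRF cAMP detection after 1 h; each compound tested at 15 concentrations, triplicate.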

[3] = target: Progesterone receptor (Homo sapiens) (UniProt P06401); test: qHTS assay to identify small molecule antagonists of the progesterone receptor (PR) signaling pathway (AID 1346795; active = well fitted inhibition curve with a large enough effect in the signal ratio in the repeat runs, not every such curve was filed as active; inconclusive = weak or mixed curves; the % refers to the signal ratio; also: potency is read from the fitted curve at half-maximal effect); details: PR-UAS-bla HEK293T, beta-lactamase FRET ratio, 16 h; activity change, negative = inhibition: at 92.4 µM (top of the series) unless noted
Method in brief: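 PR-UAS-bla HEK293T cells with beta-lactamase reporter under UAS control, in 2% charcoal-stripped FBS, treated with compounds plus 1 nM promegestone (R5020, final) for 16 hr at 37C. Read-out: FRET beta-lactamase substrate fluorescence after 2 hr at room temperature.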

[4] = qHTS assay to identify small molecule antagonists of the TGF-beta/Smad signaling pathway (AID 1346924; active = well fitted inhibition curve with a large enough effect in the signal ratio in the repeat runs, not every such curve was filed as active; inconclusive = weak or mixed curves; the % refers to the signal ratio; also: potency is read from the fitted curve at half-maximal effect); details: SBE-bla HEK293T, TGF-beta/Smad reporter, beta-lactamase ratio; activity, negative = inhibition: at 76.8 µM (top of the series) unless noted
Method in brief: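 Read-out was FRET-substrate fluorescence (405 nm excitation; 460 and 530 nm emission) after 2 h at room temperature. Before that, cells carrying a Smad-binding-element beta-lactamase reporter in HEK 293T had been stimulated 5 h at 37 C with TGF-beta1 (0.25 ng/mL addition solution) in the presence of test compound.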

[5] = qHTS assay to identify small molecule agonists or antagonists of the thyroid stimulating hormone receptor (TSHR) signaling pathway - wild type cell line counter screen (AID 1259384); details: HEK293 wild type, cAMP HTRF counter-screen; cAMP activity change: at 92.4 µM (top of the series), stronger effect = higher value unless noted; also: % is scaled to controls: 0 for no effect and ±100 for the full control effect
Method in brief: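 Counter screen in untransfected Hek293: compounds (15-point titration, triplicate) plus phosphodiesterase inhibitor Ro20-1724 added after 18 h plating; 30 min RT. Intracellular cAMP via competitive d2/cryptate immunoassay, 1 h incubation.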

[6] = qHTS assay to identify small molecule antagonists of the progesterone receptor (PR) signaling pathway - cell viability counter screen (AID 1346798; active = well fitted curve in the direction sought with a large enough effect in the repeat runs; inconclusive = weak or mixed curves; inactive = no such curve, though single readings can be large; an effect the other way counts as inactive or inconclusive; also: potency is read from the fitted curve at half-maximal effect; nearly all actives have a fitted effect of over 50% in size)
Method in brief: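 PR-UAS-bla HEK293T cells, 3,000/well in 2% charcoal-stripped FBS medium, dosed with compounds plus R5020 agonist and incubated 16 h at 37C. Viability then measured in the same wells by CellTiter-Glo luminescence after 30 min at RT.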

[7] = qHTS assay to identify small molecule agonists of the progesterone receptor (PR) signaling pathway - cell viability counter screen (AID 1346799); also: nearly all actives have a fitted effect of over 45% in size; also: potency is read from the fitted curve at half-maximal effect
Method in brief: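 Counter screen in the PR-UAS-bla HEK293T wells (2% charcoal-stripped FBS, 16 h compound exposure at 37 C) after the bla read. CellTiter-Glo added, 30 min at room temperature, luminescence read as cell viability.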

[8] = target: Progesterone receptor (Homo sapiens) (UniProt P06401); test: qHTS assay to identify small molecule agonists of the progesterone receptor (PR) signaling pathway (AID 1346784); details: PR-UAS-bla HEK293T, beta-lactamase FRET ratio, 16 h; activation: at 92.4 µM (top of the series) unless noted; also: nearly all actives have a fitted effect of over 30% in size; also: potency is read from the fitted curve at half-maximal effect; as to activation: % is scaled to controls: 0 for no effect and ±100 for the full control effect
Method in brief: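 PR-UAS-bla HEK 293T cells (beta-lactamase reporter under UAS) in 2% charcoal-stripped FBS, dosed with 23 nL compound after 6 hr, incubated 16hr at 37C. LiveBLAzer B/G FRET substrate added, fluorescence read after 2 hours.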

[9] = qHTS assay to identify small molecule agonists of the TGF-beta/Smad signaling pathway (AID 1346859; active = well fitted activation curve with a large enough effect in the signal ratio in the repeat runs, not every such curve was filed as active; inconclusive = weak or mixed curves; the % refers to the signal ratio; also: potency is read from the fitted curve at half-maximal effect; as to activation: % is scaled to controls: 0 for no effect and ±100 for the full control effect); details: SBE-bla HEK293T, TGF-beta/Smad beta-lactamase reporter, 5 h; activation: at 76.8 µM (top of the series) unless noted
Method in brief: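 SBE-bla HEK293T cells plated overnight, then compound exposure for 5 h at 37 C. Beta-lactamase reporter read with LiveBLAzer B/G FRET substrate after 2 h at room temperature, fluorescence at 405 nm excitation, 460/530 nm emission.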

[10] = qHTS assay to identify small molecule agonists of the estrogen receptor alpha (ER-alpha) signaling pathway in the presence of an antagonist - cell viability counter screen (AID 1259386; active = well fitted curve in the direction sought with a large enough effect in the repeat runs; inconclusive = weak or mixed curves; inactive = no such curve, though single readings can be large; an effect the other way counts as inactive or inconclusive;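 also: cells exposed to compounds for 22 h at 37 °C before the viability read; nearly all actives have a fitted effect of over 30% in size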; also: potency is read from the fitted curve at half-maximal effect)
Method in brief: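 Using estrogen-depleted VM7Luc4E2 cells, the 15-concentration compound series was applied together with 10.0nM ICI-182,780 and incubated 22hr at 37C/5% CO2. Cell viability was then scored by CellTiter-Fluor.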

[11] = qHTS assay to identify small molecule antagonists of the TGF-beta/Smad signaling pathway - cell viability counter screen (AID 1346824; active = well fitted curve in the direction sought with a large enough effect in the repeat runs; inconclusive = weak or mixed curves; inactive = no such curve, though single readings can be large; an effect the other way counts as inactive or inconclusive; also: potency is read from the fitted curve at half-maximal effect; nearly all actives have a fitted effect of over 50% in size)
Method in brief: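 Cytotoxicity counter-screen run in the same wells as the beta-lactamase Smad reporter read: CellTiter-Glo luminescence after 30 min at room temperature. HEK 293T SBE-bla cells had 5 hr compound exposure at 37 C with TGF-beta1 (0.25 ng/mL stock).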
Tags tell the direction and shape of the fitted curve or compound fluorescence and quenching.

Chain of UniProt P06401 (P06401 whole entry, looked up): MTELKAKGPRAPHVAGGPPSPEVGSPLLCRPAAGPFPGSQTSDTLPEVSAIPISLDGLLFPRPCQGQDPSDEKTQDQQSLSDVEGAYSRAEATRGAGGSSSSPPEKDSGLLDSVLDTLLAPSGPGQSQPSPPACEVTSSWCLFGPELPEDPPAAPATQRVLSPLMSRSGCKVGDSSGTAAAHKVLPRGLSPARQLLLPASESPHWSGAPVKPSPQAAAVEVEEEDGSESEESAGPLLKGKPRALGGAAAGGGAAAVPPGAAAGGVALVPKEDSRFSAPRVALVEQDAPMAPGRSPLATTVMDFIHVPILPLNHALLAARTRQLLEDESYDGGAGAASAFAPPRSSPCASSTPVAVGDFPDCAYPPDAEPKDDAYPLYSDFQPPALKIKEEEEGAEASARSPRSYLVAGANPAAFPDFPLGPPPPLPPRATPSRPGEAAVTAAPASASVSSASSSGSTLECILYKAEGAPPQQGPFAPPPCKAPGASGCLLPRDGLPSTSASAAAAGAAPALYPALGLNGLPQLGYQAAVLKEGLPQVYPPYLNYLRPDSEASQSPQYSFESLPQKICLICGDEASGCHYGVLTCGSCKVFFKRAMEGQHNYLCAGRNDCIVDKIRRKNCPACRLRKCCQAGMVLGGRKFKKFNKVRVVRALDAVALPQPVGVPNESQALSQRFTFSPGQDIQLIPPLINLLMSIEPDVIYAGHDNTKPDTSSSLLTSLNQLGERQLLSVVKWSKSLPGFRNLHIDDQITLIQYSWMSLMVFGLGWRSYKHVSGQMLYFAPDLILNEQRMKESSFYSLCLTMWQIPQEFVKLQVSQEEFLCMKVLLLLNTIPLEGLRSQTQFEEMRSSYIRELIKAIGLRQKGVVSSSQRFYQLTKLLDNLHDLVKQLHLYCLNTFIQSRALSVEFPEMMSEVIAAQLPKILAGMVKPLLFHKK
Chain of UniProt P16473 (P16473 whole entry, looked up): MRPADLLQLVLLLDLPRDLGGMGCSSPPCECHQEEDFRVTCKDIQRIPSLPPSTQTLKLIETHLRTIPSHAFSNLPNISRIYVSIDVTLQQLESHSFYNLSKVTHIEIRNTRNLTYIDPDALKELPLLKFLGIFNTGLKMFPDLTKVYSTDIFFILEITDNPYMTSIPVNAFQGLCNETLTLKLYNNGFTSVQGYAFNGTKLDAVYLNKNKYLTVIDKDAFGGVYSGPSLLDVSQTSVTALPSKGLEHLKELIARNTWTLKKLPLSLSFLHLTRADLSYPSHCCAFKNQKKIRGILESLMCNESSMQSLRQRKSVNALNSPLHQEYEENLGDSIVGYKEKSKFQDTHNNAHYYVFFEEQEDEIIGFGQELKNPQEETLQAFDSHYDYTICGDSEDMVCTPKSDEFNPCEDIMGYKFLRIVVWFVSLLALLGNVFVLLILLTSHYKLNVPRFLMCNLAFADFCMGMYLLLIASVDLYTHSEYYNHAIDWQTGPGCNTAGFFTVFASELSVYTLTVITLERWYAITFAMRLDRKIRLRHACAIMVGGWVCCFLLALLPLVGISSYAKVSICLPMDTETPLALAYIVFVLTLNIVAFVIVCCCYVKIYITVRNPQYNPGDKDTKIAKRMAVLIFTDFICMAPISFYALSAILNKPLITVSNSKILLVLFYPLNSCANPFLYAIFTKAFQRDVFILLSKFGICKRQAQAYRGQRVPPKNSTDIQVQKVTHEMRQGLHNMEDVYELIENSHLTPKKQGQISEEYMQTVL

Structure (SMILES): C[C@]12CC[C@H]3C(=CCc4cc(O)ccc43)[C@@H]1CCC2=O
- Potency [1]: active: 30.6 µM
- Potency [2]: inconclusive: 68.6 µM [falling, single point]
- Potency [3]: inconclusive: 68.6 µM [rising, partial curve, poor fit]
- activity, negative = inhibition [4]: inconclusive: 2.23%

Structure (SMILES): CC(C)(C)NCCNC(C)(C)C
- Potency [5]: inactive
- Potency [6]: active: 0.864 µM

Structure (SMILES): CCCCCCCCOc1ccccc1C(=O)Nc1ccc(C(=O)OCC[N+](C)(CC)CC)cc1
- Potency [1]: active: 23.7 µM
- Potency [7]: inconclusive: 29.8 µM [cytotoxic, partial curve]

Structure (SMILES): COc1cc(C)nc(-n2nc(C)cc2OC)n1
- Potency [1]: inactive
- activation [8]: inconclusive: -13.7% [at 42.5 µM]
- Potency [3]: inconclusive: 7.5 µM [full curve]
- Potency [6]: active: 11.9 µM
- Potency [7]: active: 8.41 µM

Structure (SMILES): CCCCCCCCCCCC[N+](C)(C)CCCCCCCCCCCC
- Potency [1]: active: 21.7 µM
- Potency [8]: inconclusive: 54.5 µM [cytotoxic, partial curve]
- Potency [3]: inconclusive: 54.5 µM [falling, partial curve]
- Potency [6]: active: 43.3 µM
- Potency [7]: active: 19.3 µM
- Potency [9]: inconclusive: 61.7 µM [cytotoxic]
- Potency [4]: inconclusive: 8.71 µM [rising, partial curve]

Structure (SMILES): C(=C\c1ccccc1)/c1ccccc1
- Potency [2]: inactive
- Potency [9]: inactive

Structure (SMILES): C1CCCC1
- Potency [10]: inactive

Structure (SMILES): CCCCOCCOC(=O)c1ccccc1C(=O)OCCOCCCC
- Potency [2]: inconclusive: 68.6 µM [falling, single point]
- activity change, negative = inhibition [2]: inconclusive: -10.8%
- Potency [10]: inconclusive: 19.3 µM [cytotoxic, partial curve, poor fit]
- Potency [3]: active: 53.3 µM and inconclusive: 54.5 µM
- Potency [6]: inconclusive: 75.3 µM [cytotoxic, single point]
- Potency [11]: inconclusive: 54.9 µM [cytotoxic, partial curve, poor fit]
- activity, negative = inhibition [4]: inconclusive: -29.7%

Structure (SMILES): CC(C)=CCC/C(C)=C\CO
- Potency [10]: inactive

Structure (SMILES): C=C(C)C(=O)OCC[N+](C)(C)C
- Potency [2]: inconclusive: 54.3 µM [falling, partial curve]
- Potency [3]: inconclusive: 17.2 µM [rising, partial curve, poor fit]
- Potency [6]: inconclusive: 68.3 µM [cytotoxic, single point]
- Potency [7]: inactive

Structure (SMILES): C=CCNc1nc(NCC=C)nc(N2CCN(C(c3ccc(F)cc3)c3ccc(F)cc3)CC2)n1
- Potency [2]: active: 9.44 µM
- Potency [3]: active: 2.98 µM
- Potency [6]: inconclusive: 16.8 µM [cytotoxic, full curve, poor fit]
- Potency [7]: inconclusive: 1.68 µM [rising, full curve]

Structure (SMILES): CCCOc1ccc2nc(NC(=O)OC)[nH]c2c1
- Potency [2]: inconclusive: 15 µM [falling, full curve, poor fit]
- activity change, negative = inhibition [3]: inconclusive: -25.2% [at 42.5 µM]
- Potency [6]: inconclusive: 0.531 µM [rising, full curve]
- Potency [7]: inconclusive: 0.376 µM [rising, full curve]
- activity, negative = inhibition [4]: inconclusive: -0.567% [at 35.3 µM]
